Measurements published in PMC7016652.
These are yes or no findings as the source states them, for the method shown. In cells and extracts the contact can be indirect. Some entries that bind do so weakly or less than the wild type.

Legend:
GST–p53 (human) = GST–p53 (human) (UniProt P04637); assay: pull-down; GST or GST-p53 purified from E. coli incubated with lysates of H1299 cells transfected with 6Myc-TAZ or its deletion mutants, TNTE buffer, 4 °C, 2 h; immunoblot; only the target purified
6Myc-p53 (human) = 6Myc-p53 (human) (UniProt P04637); assay: co-IP; H1299 cells transiently transfected, lysed after 24 h in TNTE buffer (20 mM Tris-HCl pH 7.5, 120 mM NaCl, 1 mM EDTA, 0.5% Triton X 100); anti-FLAG M2 agarose beads, 4 °C, 2 h; eluted with 3× FLAG peptide; immunoblot
[1] = target: p53 (a.a. 90–290) (human) (UniProt P04637); assay: as above
p53 (a.a. 1–290) (human) = p53 (a.a. 1–290) (human) (UniProt P04637); assay: as above
[2] = target: p53 (a.a. 90–393) (human) (UniProt P04637); assay: as above
[3] = target: endogenous TAZ of MCF7 cells (human (endogenous in MCF7)) (UniProt Q9GZV5); assay: co-IP; endogenous proteins; MCF7 cells treated with 10 μM MG132 for 8 h; anti-TAZ antibody on Dynabeads Protein A; TNTE buffer; immunoblot
FLAG-TAZ (a.a. 106–400) = FLAG-TAZ (a.a. 106–400) (UniProt Q9GZV5); assay: co-IP; H1299 cells transiently transfected, lysed after 24 h in TNTE buffer (20 mM Tris-HCl pH 7.5, 120 mM NaCl, 1 mM EDTA, 0.5% Triton X 100); anti-FLAG M2 agarose beads, 4 °C, 2 h; eluted with 3× FLAG peptide; immunoblot
[4] = target: FLAG-TAZ (transcriptional coactivator with a PDZ-binding motif), full length (UniProt Q9GZV5); assay: as above

How did the binding (GST–p53 (human)) turn out when “6Myc-TAZ C-terminal portion (a.a. 171–400) (from UniProt Q9GZV5 171-400) (domain or fragment)” was run?
Its binding is “no binding”.

With “6Myc-TAZ N-terminal portion (a.a. 1–170) (from UniProt Q9GZV5 1-170) (domain or fragment)” as the substance, how does the binding (GST–p53 (human)) read?
Its binding is “binds”.

“6Myc-TAZ, full length (from UniProt Q9GZV5 1-400)” was tested. Which binding (GST–p53 (human)) did it give?
Its binding is “binds”.

With “TAZ (as co-expressed for Figure 4F) (from UniProt Q9GZV5 1-400)” as the substance, how does the binding (6Myc-p53 (human)) read?
Its binding is “binds”.

For “TAZ (as transfected for Figure 3H) (from UniProt Q9GZV5 1-400)”, which binding [1] is on record?
The binding was “no binding”.

And the binding (p53 (a.a. 1–290) (human))?
The binding was “binds”.

What about the binding [2] of the same substance?
The binding was “no binding”.

For “endogenous p53 of MCF7 cells (from UniProt P04637 1-393)”, which binding [3] is on record?
Its binding is “binds”.

Which results are given for “p53 (human, transfected) (from UniProt P04637 1-393)”?
binding (FLAG-TAZ (a.a. 106–400)): binds; binding [4]: binds
